The list shows a part of the results.
B1: 46692762_46692882_289_3pUTR_ENSMUSG00000015605_ENSMUST00000015749|mouse|control|control (ssRNA)
RNA: GGGAGUUCUACAGUCCGACGAUCUUGGCUCGGUAACAUGGCGCUCAGUGCAGGAGGGCUGACGGGCAAGUCAGCGAGGAAUCGGGGCAGCUGCCGCCAUCGGCUUCUCGGUUCCACCCGGCACUCGCGCUGUUACUAAAGCCGCAACAGAGGAUUGAGCAUCA
B2: chr14:61442442:61442443:-_ENSG00000126814_ENST00000261249|hu_hu|motif|central (ssRNA)
RNA: GGGAGUUCUACAGUCCGACGAUCUAUGGGAAGGAACUCACUGCUGCAUGGCUGCCCAUCUAAAAGCCACUUGAAAGCACGGAGAAACUCUAUAGCUUUUGCUGGCAAGUUCAUGACAACGUGCACAGAGGGUUUUCUUUCUUUCAACAGAGGAUUGAGCAUCA
B3: chrX:135579806:135579807:+_ENSG00000102241_ENST00000218364|hu_hu|motif|central (ssRNA)
RNA: GGGAGUUCUACAGUCCGACGAUCCCAAGUUGGUGCCGCUCAUGUUUCCUACCUAGCUCAGGAGCAGGGUUCAGAAGAACGGAGAGGCCGAAAUGACGCUGGAGCUGAGCAGAGAAAGGGAGGUCAACCGCGCUCUGCUCGCGCCAACAGAGGAUUGAGCAUCA
B4: chr17:87533601:87533602:+_ENSMUSG00000037104_ENSMUST00000041369|mus_hu|FALSE|FALSE (ssRNA)
RNA: GGGAGUUCUACAGUCCGACGAUCUGUUGAAUGUGGGCUCACAGGAGCUGUAUGCUGUUUAAUCAAAUGCCAUUUUUGGGCUAAAUCUGAGCCAGCAGGAAAAGGGCAUUUCUCAAGCAUUAAUUCAGAGAGAUGGAUUUUUCUCAACAGAGGAUUGAGCAUCA
B5: chrX:98417731:98417732:-_ENSMUSG00000046032_ENSMUST00000120389|mus_hu|FALSE|FALSE (ssRNA)
RNA: GGGAGUUCUACAGUCCGACGAUCGUUACUUGGCGGCCCGUAAGCGUCGGUCAGGUCCUGCGGCUUCGAGUUAAGGCGCCGGGUAUCAGCUACUGCCGUGUCCGACAUCUUUCCGAAGGAGAGCCUGGGACCGGGGAAAGGGGGCAACAGAGGAUUGAGCAUCA
B6: chr12:32660859:32660860:-_ENSMUSG00000002997_ENSMUST00000036497|mus_hu|FALSE|FALSE (ssRNA)
RNA: GGGAGUUCUACAGUCCGACGAUCGUCACCUUGAUCAAUUACAUGCUCCCCAUCUUUGACCAAUUUUUCAAACAUGGCAUCUAAUACUUGAGACAUCUGCUCCGGAUCCAGAUUCUUAAACAGCAGGAUGUCUUUGCAAGCCUCCAACAGAGGAUUGAGCAUCA
B7: chr4:76691598:76691599:+_ENSG00000138768_ENST00000264904|hu_mus|FALSE|FALSE (ssRNA)
RNA: GGGAGUUCUACAGUCCGACGAUCCUGCUUAAUGAAAAUUUCUGUAAACUGGCUUCCCAAAUCCUCACUCUGUCUUGUAGAAUUUUCUUCUAGUUCUUCCUCUUCGUCAUUAGAUAUUAUAUUAUAAAGUGUGUCCAAAGCAUACAACAGAGGAUUGAGCAUCA
B8: chr17:56236750:56236751:+_ENSMUSG00000002833_ENSMUST00000002911|mus_mus|FALSE|FALSE (ssRNA)
RNA: GGGAGUUCUACAGUCCGACGAUCGCGCCGCUCCUUCUCCUCCCUCUCCUGUUCUCGAAGUCUCCGGAGCUCUUCCUCCUGCUCCCGUCGCCUCCGAGCCUCCAGCUCACGCCUUCGCUCUUCAUCACGUCUCUUCCAUUCACUCAACAGAGGAUUGAGCAUCA
B9: 158552673_158555425_400_3pUTR_ENSMUSG00000026596_ENSMUST00000166172|mouse|control|control (ssRNA)
RNA: GGGAGUUCUACAGUCCGACGAUCUUUUCACCUUUAGUGAUACUGAGUGUGUUAUCACCACUUGCCACAAAGUCAUAAAGUGCAACAAAGAGAUUAGGGUCACUCUCAGUGGCUCCCAGCAAGUUCUCCUUGGAGCUCCACCUGCAACAGAGGAUUGAGCAUCA
B10: chr11:100643421:100643422:-_ENSMUSG00000020919_ENSMUST00000004143|mus_hu|FALSE|FALSE (ssRNA)
RNA: GGGAGUUCUACAGUCCGACGAUCCCAAUGCACAAGAGAGAAUUUUGAUGUCAAAUUAGGGUGGCAAGGAGAAAACAAAAAAGAUCCAACUUAGAAACAGAACCAUGAUUCAACAUUUGCAAAAAGCAUCAUCAAUAAGCCUGACAACAGAGGAUUGAGCAUCA
B11: chr15:58009597:58009598:+_ENSG00000255529_ENST00000299638|hu_hu|FALSE|FALSE (ssRNA)
RNA: GGGAGUUCUACAGUCCGACGAUCGUGUCAAGAGGGGACACACAGAGAUUUUGGAGUGCUGGCAAGACCUCCUCUGCAUCUAGUUUGUGAUUACACAGCUGUUGCUUUACCCAUUAAGCUCUGUUUUAAGUACUUAUUUGUAAGCAACAGAGGAUUGAGCAUCA
B12: 3309556_3309676_353_5pUTR_ENSMUSG00000020671_ENSMUST00000021001|mouse|control|control (ssRNA)
RNA: GGGAGUUCUACAGUCCGACGAUCCGGAGCAGGAGACCUUCCGAACGGCCUCGUCGAGGAAGCCCCGACGGUGGCGGCGCCCGUGCCUCCGAGGGGCGGCGCCCGCGGCUCCGCAGCCUCUCCCAGCCGCUCCGCCCGGUUCCGCAACAGAGGAUUGAGCAUCA
B13: chr10:62544570:62544571:+_ENSG00000170312_ENST00000395284|hu_hu|FALSE|FALSE (ssRNA)
RNA: GGGAGUUCUACAGUCCGACGAUCACUGACUAUAUUUGGAUGACGAAGUUCCUUUAAUAGAGAAAUUUCCCGAAUUGCAGUACUAGGAACCCCUUCCUCUUCACUUUCUAGUCUGAUUUUUUUCAUGGCUACCACUUGACCUGUCAACAGAGGAUUGAGCAUCA
B14: chr22:32879901:32879902:+_ENSG00000100225_ENST00000397426|hu_mus|hu_hu_hu_mus_False|1_48 (ssRNA)
RNA: GGGAGUUCUACAGUCCGACGAUCCUCUUCCAUACUCAUGGCAUCCUGAAUUGACUCAGCUUCAACAUUUUGACUAGGCCCUUCCAUACUGUCGUCAGUCCAGGCAUCAAAUGGGGUGGCCUGUCCUUGGGAUGAAUCACUUGGCAACAGAGGAUUGAGCAUCA
B15: chr2:176857102:176857103:-_ENSG00000144320_ENST00000272748|hu_hu|motif|central (ssRNA)
RNA: GGGAGUUCUACAGUCCGACGAUCGGAAUACAGAAUUAAUCUUCCAACCCAUAAUUUUUGUAAUCUCUGAUUUUUUUCCCGGAAUUCUUCCAAUGCUUGAAUUUCCUUAUCUAUACUUUCUAGAACUUCUACAGUUGAAGGUUUCAACAGAGGAUUGAGCAUCA
B16: 109688593_109688713_2749_CDS_ENSG00000148143_ENST00000277225|human|control|control (ssRNA)
RNA: GGGAGUUCUACAGUCCGACGAUCUCCAGAGUCACCAAAGUCUGUGUUUUCACUAUUGUGCUCAGUCCCAUAGAUGGGAGUUUGGGUAUUCAGCAGAGCAGUAUUGGAAACUUGGUGAUCUUUCAAGUUUGUUGAGGAGCCAUACAACAGAGGAUUGAGCAUCA
B17: chr19:41288738:41288739:-_ENSMUSG00000025016_ENSMUST00000025989|mus_mus|motif|central (ssRNA)
RNA: GGGAGUUCUACAGUCCGACGAUCUGGGGGAGGGAGGGGAAGAUAAUCACUUUAGACAUUCAGUUAAAAUGUAAAUUAUCGGAAUCUCCAAAUGUUUAAUAAAAACAAGCAUCUUCUCCAUUUAACACUUCGCUUGCUAACUGUCAACAGAGGAUUGAGCAUCA
B18: chr7:99593754:99593755:+_ENSMUSG00000052572_ENSMUST00000098308|mus_hu|motif|central (ssRNA)
RNA: GGGAGUUCUACAGUCCGACGAUCCUUUAGUGCCUUCUUUCAGUUUAUAAAUGGCAAAAUAGGCAAUCAACAAUCAUAAAGCGGAUCCCAGGUGGAAUCCCCUCCUGUCAGUGAGGUUAGUCCUCCAUACACUUGCAAAUUUUACAACAGAGGAUUGAGCAUCA
B19: chr10:70182154:70182155:-_ENSG00000138346_ENST00000358410|hu_mus|FALSE|FALSE (ssRNA)
RNA: GGGAGUUCUACAGUCCGACGAUCCAGGGCUAGCACUGCGUUGGCCACUCGGUCUGACCCACACUCCAGUUUCCCUGCGUAUGUGAGCUUGUUGCUCAGGGACAUAAUCUUCCUGUUCAUUCGGUAUUGCACGGUCAGCUGCACCAACAGAGGAUUGAGCAUCA
B20: chr17:1756424:1756425:+_ENSG00000132383_ENST00000254719|hu_hu|motif|central (ssRNA)
RNA: GGGAGUUCUACAGUCCGACGAUCAUAGGGCACUGGAUUGCCAAUCUUCACUCCAACUGCUUCAGCUGACUUCAAAACUUCGGAUUCCAUCAAGAUAACUACUCUCCUUCCGUCUUUCAGAGUGUUCACAAUAAAUCUGUGAAUCAACAGAGGAUUGAGCAUCA
B21: chrX:131339419:131339420:-_ENSMUSG00000033436_ENSMUST00000035559|mus_mus|FALSE|FALSE (ssRNA)
RNA: GGGAGUUCUACAGUCCGACGAUCGUUUGAAAGUAUUUUCAGAAUCUCAACCUUGAUUUUUCCACCCCCCUGAGAUAACAAGCGGAAAAAGUUGGCAAUGGAAUUGACAAGCAGGUGCUGGUAGUCAUUAGUAAUAGUCAUGUUCAACAGAGGAUUGAGCAUCA
B22: chr1:6251023:6251024:+_ENSMUSG00000025907_ENSMUST00000027040|mus_mus|motif|central (ssRNA)
RNA: GGGAGUUCUACAGUCCGACGAUCUUCCGCAACUAAGCUUGAAGAAUCUUCUCUGGCUGACUCAAAGGCAGGAGUUUUGGCGGUUUGAUUCUCAAGAUGUUUAACUUUUUCUAAUAACUCUUUCUCAACAAGUUCUCUCUCCACCAACAGAGGAUUGAGCAUCA

The binders below were run against T1, UNK ZnF1-3 (human, UniProt Q9C0B0 31-174) (assay: nsRBNS (natural sequence RNA bind-n-seq); RBNS binding buffer (assumed for nsRBNS): 25 mM Tris pH 7.5, 150 mM KCl, 3 mM MgCl2, 0.01% Triton X-100, 500 ug/ml BSA, 20 U/ml SUPERase-In, 4 C; UNK is unkempt and MSI1 is Musashi-1; names of the RNAs are library labels; protein concentration not given here; high values mean tight binding).
T1 sequence: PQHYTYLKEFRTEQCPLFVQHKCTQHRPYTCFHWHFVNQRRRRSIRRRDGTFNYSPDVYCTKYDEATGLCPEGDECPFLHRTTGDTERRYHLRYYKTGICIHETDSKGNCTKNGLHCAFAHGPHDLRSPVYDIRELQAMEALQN

Row | Binder | binding signal [enrichment R]
1 | B1 | 0.174
2 | B2 | 0.972
3 | B3 | 0.921
4 | B4 | 1.13
5 | B5 | 0.903
6 | B6 | 1.51
7 | B7 | 1.77
8 | B8 | 0.617
9 | B9 | 0.747
10 | B10 | 2.01
11 | B11 | 1.12
12 | B12 | 0.215
13 | B13 | 0.425
14 | B14 | 0.748
15 | B15 | 0.584
16 | B16 | 1.02
17 | B17 | 1.1
18 | B18 | 0.898
19 | B19 | 0.478
20 | B20 | 0.805
21 | B21 | 1.41
22 | B22 | 1.21

From publication PMC12136788
